{"source": "paper PMC12136788", "binders": {"B1": {"name": "chr4:115894766:115894767:+_ENSMUSG00000028698_ENSMUST00000030464|mus_hu|motif|central (ssRNA)", "RNA": "GGGAGUUCUACAGUCCGACGAUCUUCCACACGGAAAUGUACUUCGGGUUUUCCAACGGCCAGUACCAGUCCGGCCAAACGGCCCGAACAGGGUCCUCCCCCUCUCUCCUACAGAACACAACAAAAUGCCCCCGAACUUUCAAGCAACAGAGGAUUGAGCAUCA"}, "B2": {"name": "chr1:52246310:52246311:-_ENSMUSG00000026103_ENSMUST00000114513|mus_hu|FALSE|FALSE (ssRNA)", "RNA": "GGGAGUUCUACAGUCCGACGAUCGCCCAUCUUAUCCAGAGGAGGAGACCAGCACAUCAUACCCAUAACAUUGGGGACAACUAAAAGAAUGCCCCCAGCAACUCCAGAUUUUGCAGGAAGACCAACAUGGAAAGCAAACUGCCCCAACAGAGGAUUGAGCAUCA"}, "B3": {"name": "chr11:58768638:58768639:+_ENSMUSG00000078851_ENSMUST00000108817|mus_mus|motif|central (ssRNA)", "RNA": "GGGAGUUCUACAGUCCGACGAUCUCUAAUGAGGUUGUGGGUGGCUCUGAAAAGAGCCUUUGGUGUCUGUAAAAGUCGCACGGACGACCGGUAGGGGCCUCACUUGCCCUUGGCCUUGUGGUGGCUCUCGGUCUUCUUGGGCAGCAACAGAGGAUUGAGCAUCA"}, "B4": {"name": "chr7:118222036:118222037:-_ENSMUSG00000005610_ENSMUST00000162415|mus_hu|FALSE|FALSE (ssRNA)", "RNA": "GGGAGUUCUACAGUCCGACGAUCAUCAAAGUUUGGUGCAUCUUCUGCCAAUCGCAGACAUAGCUGAGCAUACAGUGAGCUAUACUUUGGCUCUUCUAGGGCUUUGUCCACAAUCAGCAGUAUGACCCCUUUAAGGAUGAGUUUCAACAGAGGAUUGAGCAUCA"}, "B5": {"name": "33698877_33698997_61_5pUTR_ENSMUSG00000027677_ENSMUST00000099153|mouse|control|control (ssRNA)", "RNA": "GGGAGUUCUACAGUCCGACGAUCGACGCCUGAGCUUAGCACGUACGUCGGGCUGUGUGGUUCCUAGGUCGCCAAGGCCAGAGCUCCGGUCUCUUUUUCACCGGGUGCUGCCGAGUUCAGCGGUGCAAGGGUGGCUGGGCGGCCCAACAGAGGAUUGAGCAUCA"}, "B6": {"name": "chr7:36506639:36506640:-_ENSMUSG00000043671_ENSMUST00000051377|mus_hu|FALSE|FALSE (ssRNA)", "RNA": "GGGAGUUCUACAGUCCGACGAUCGAACAGCACUAAUGCUUGCAUCAGCAUCAUAAAUUGAUUAAAUUGCCAUGUCAGACUAAAGAGAAAAGUUGAUAUGAAAAUGGCAAGAAGUGUCAGCCUUUCAGAAAGAGGCUGUAAGUUCAACAGAGGAUUGAGCAUCA"}, "B7": {"name": "chr7:134094464:134094465:+_ENSMUSG00000030683_ENSMUST00000106335|mus_hu|FALSE|FALSE (ssRNA)", "RNA": "GGGAGUUCUACAGUCCGACGAUCCUCCGUCUCCGUUUAUCUUUCCCUUUAAUUGUUUUUUUUUUUUUUUUUUUUUUCCUCGUAGGAGUCAGCAAAGAAAGACAAUUUCUCUGCCCCUUGGGAUGGAGGGGCAGAAUUGGGCUACAACAGAGGAUUGAGCAUCA"}, "B8": {"name": "11454962_11455736_3700_CDS_ENSMUSG00000040720_ENSMUST00000059914|mouse|control|control (ssRNA)", "RNA": "GGGAGUUCUACAGUCCGACGAUCAAGCAACCUGGUGGUUUGGCUAGUAUACUGUUUUUCUUUAUCUUCUGAAGUGCUUUGCAAGUCUUCUACAAUCAAAUCCAACACAGUUCUCAUGAUCAGAAGAGCAGUUGGAGAGGCAAGCAACAGAGGAUUGAGCAUCA"}, "B9": {"name": "7334659_7334779_828_CDS_ENSG00000170743_ENST00000318881|human|control|control (ssRNA)", "RNA": "GGGAGUUCUACAGUCCGACGAUCGUUACUCCGUCUCCCGUCAUCAUUAUCCAAUGACCUCUGCUUAUAUAACUCUGGUUUAAUUCUACCAAUUCCAGUCAACUGUUCCUGUUUUUGAAGCUGCUGGAUAUUGAAGUCCGGGUUCAACAGAGGAUUGAGCAUCA"}, "B10": {"name": "chr7:133967480:133967481:+_ENSMUSG00000058966_ENSMUST00000079423|mus_hu|FALSE|FALSE (ssRNA)", "RNA": "GGGAGUUCUACAGUCCGACGAUCGAAGGAGUUAGGGGUGGAGAAGGGACGCCAAGCCCGGGAAGGAGGGAGAAAACGAUGAGAAGGGGCACAAAGGGGCCAGGGCGGGGACGGGAUGGGGCCAGGGAGUCCGAUGAAACUGGGCAACAGAGGAUUGAGCAUCA"}, "B11": {"name": "60831962_60832082_133_5pUTR_ENSMUSG00000072437_ENSMUST00000088237|mouse|control|control (ssRNA)", "RNA": "GGGAGUUCUACAGUCCGACGAUCCCGUGGGGUAGGGCAGCCUUGCUUCCUUUUAUCGCUCCCGCUUUCUCCUGUGCCCCUCCUCGCUGUCUCGGCCCUGCCCCCUGCGAUCCUCCGCCCGGGCCACUGCGCCCGCGCCCCCGGCAACAGAGGAUUGAGCAUCA"}, "B12": {"name": "97379832_97382281_1272_3pUTR_ENSMUSG00000021669_ENSMUST00000077672|mouse|control|control (ssRNA)", "RNA": "GGGAGUUCUACAGUCCGACGAUCUUUCUUCUUAAGUUCUUCCAUCACAUUCUUGUACGCUUCCUCCACUCGUCUCCUCUUUUCCACUUCCCUAUCGUGUCUUUUUUGCCAGCUCUCUUCCCGUUUUACCAUUAAUUCAAUACACAACAGAGGAUUGAGCAUCA"}, "B13": {"name": "chr3:105770834:105770835:+_ENSMUSG00000000561_ENSMUST00000010278|mus_hu|FALSE|FALSE (ssRNA)", "RNA": "GGGAGUUCUACAGUCCGACGAUCACACUUCUCUCUCAUAUAUGUCCCAUCACUAGGGAGCCAGGGGGAAGGGAGUGGGCAUUACACAGGCAAGCCAAACUUUUUAUUCAGCCAGAAAAUGGAUUUCUGAUUCAGUUUAAUGGUCAACAGAGGAUUGAGCAUCA"}, "B14": {"name": "62695852_62700603_289_3pUTR_ENSMUSG00000042211_ENSMUST00000048688|mouse|control|control (ssRNA)", "RNA": "GGGAGUUCUACAGUCCGACGAUCAGCUUCCGAGAGAGGCAUUCCAUGCACAUGAUGUCCUGUAGUGGCAGGUACCUGAAGAUAUGACAGAGCACUUCAUGUGACAGCUGGUUCAUGUAGUCCUUCUCUUCAUCGGCUGUCAUUCAACAGAGGAUUGAGCAUCA"}, "B15": {"name": "chr5:38529174:38529175:-_ENSMUSG00000029126_ENSMUST00000031009|mus_mus|motif|central (ssRNA)", "RNA": "GGGAGUUCUACAGUCCGACGAUCGAAAAGCUAAAGUAGCCCUGGCUUACCCAAAAUUACAUUUCACUUUGCCCACUGGCGGAUAAAACAAAACAAAACAAAACAAAAAACCCAAACUGCACCUGCAUUCAGGGCUGUACGUGCCAACAGAGGAUUGAGCAUCA"}, "B16": {"name": "chr16:45382771:45382772:-_ENSMUSG00000022661_ENSMUST00000163230|mus_mus|mus_mus_mus_hu_True|48_98 (ssRNA)", "RNA": "GGGAGUUCUACAGUCCGACGAUCCUGGGUCAUGUUAUGGGCCCAAUGGACAGGGAGGGCAUGCUUCUCAAAAAAUGUGAGCUAUUGACUAAGACUAACAAUAUUUAUCUAGCUAUAAAAAUAAGUUAAAUGAAUAAGUUAAGACAACAGAGGAUUGAGCAUCA"}, "B17": {"name": "chr2:9724813:9724814:-_ENSG00000134308_ENST00000238081|hu_hu|FALSE|FALSE (ssRNA)", "RNA": "GGGAGUUCUACAGUCCGACGAUCAUUUUUAUUGGGAGGGGAGGUUGGCAACUUAAACAGCAGCAAAUAAAGAGUGAAUAAGGAAACUCCCUGUUGCCACAGAUACACAAGACCUCCGUAUGUGAUACAGGAGCCAUUUCAAUUCAACAGAGGAUUGAGCAUCA"}, "B18": {"name": "chr10:94818082:94818083:+_ENSG00000138190_ENST00000260762|hu_hu|FALSE|FALSE (ssRNA)", "RNA": "GGGAGUUCUACAGUCCGACGAUCCUACAUGUGCUGGGACAUACCAUUCACCAAACUUCUCAGCUGUUUCACGACUGUCUCUAUCAACUUCUGUUUGUCUCGAUCAUUCUUCCUGAACUGAGCAAAUAUAUUGUUCUUUUUGCUCAACAGAGGAUUGAGCAUCA"}, "B19": {"name": "chr1:66480114:66480115:+_ENSMUSG00000015222_ENSMUST00000024639|mus_hu|mus_mus_mus_hu_True|98_98 (ssRNA)", "RNA": "GGGAGUUCUACAGUCCGACGAUCUGGCCUGUGGCGGAUGUUCUUUAGAGAGCCACAUUUGGAUGUCACAUGGCUUAGGUCUAUUUUCUUGGUAACAAUUUGUACCUGCCCCCCUUUAGGCUGGUAUUUGAUGUUGUCUGUUGACAACAGAGGAUUGAGCAUCA"}, "B20": {"name": "117875474_117878920_396_CDS_ENSG00000164754_ENST00000297338|human|control|control (ssRNA)", "RNA": "GGGAGUUCUACAGUCCGACGAUCUGAUGUCCGUAAUGCCAUUUUCACCUUUGGUGAGAUGAUACUCUCCACGCUGCUCUCUAAAUUACACUCGAACACAUGGGCUUUGGUUAGCUUCUUAUCCCAAUGGGCCGCUAGCCAAAUCAACAGAGGAUUGAGCAUCA"}, "B21": {"name": "chr2:207631934:207631935:+_ENSG00000118246_ENST00000403094|hu_hu|motif|central (ssRNA)", "RNA": "GGGAGUUCUACAGUCCGACGAUCCUUCUGGUCAUCAGACAGUCUUUUGGCAAUUGUCCACAUUGCUGUGAAAUAGUUGCGGCGGGGAAAUGUGGGCGCUUUUGAAAAUGCAUCUAACACAUCACUCAGGGAAUUACAUUCCUCCAACAGAGGAUUGAGCAUCA"}, "B22": {"name": "chr15:64983782:64983783:-_ENSG00000180304_ENST00000326005|perfect_dup|motif|central (ssRNA)", "RNA": "GGGAGUUCUACAGUCCGACGAUCCCUGGAACAAUGUGCCUGCAGCACUGGAGCUGGGGACACUUACUCAACGGCAAAAUACGGCUGUCCUGGGUGUUUAUCAUCCUCGGUGGCUCUGCUCAGGGUGGGAGGAGGCGGCGCGGGCAACAGAGGAUUGAGCAUCA"}}, "note": "The list shows a part of the results."}
{"molecular_target": "T1, UNK ZnF1-3 (human, UniProt Q9C0B0 31-174)", "T1 sequence": "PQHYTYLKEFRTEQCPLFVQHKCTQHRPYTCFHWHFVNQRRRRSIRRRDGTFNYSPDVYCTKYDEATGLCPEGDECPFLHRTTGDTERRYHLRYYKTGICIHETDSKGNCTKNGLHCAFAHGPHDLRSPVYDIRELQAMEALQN", "assay": "nsRBNS (natural sequence RNA bind-n-seq); RBNS binding buffer (assumed for nsRBNS): 25 mM Tris pH 7.5, 150 mM KCl, 3 mM MgCl2, 0.01% Triton X-100, 500 ug/ml BSA, 20 U/ml SUPERase-In, 4 C; UNK is unkempt and MSI1 is Musashi-1; names of the RNAs are library labels; protein concentration not given here; high values mean tight binding", "units": {"binding signal": "enrichment R"}}
{"binder": "B1", "binding signal": 1.11}
{"binder": "B2", "binding signal": 2.09}
{"binder": "B3", "binding signal": 0.728}
{"binder": "B4", "binding signal": 0.618}
{"binder": "B5", "binding signal": 1.05}
{"binder": "B6", "binding signal": 2.09}
{"binder": "B7", "binding signal": 1.16}
{"binder": "B8", "binding signal": 1.43}
{"binder": "B9", "binding signal": 0.621}
{"binder": "B10", "binding signal": 2.53}
{"binder": "B11", "binding signal": 1.2}
{"binder": "B12", "binding signal": 0.401}
{"binder": "B13", "binding signal": 0.994}
{"binder": "B14", "binding signal": 1.2}
{"binder": "B15", "binding signal": 1.25}
{"binder": "B16", "binding signal": 2}
{"binder": "B17", "binding signal": 1.43}
{"binder": "B18", "binding signal": 0.449}
{"binder": "B19", "binding signal": 0.466}
{"binder": "B20", "binding signal": 0.522}
{"binder": "B21", "binding signal": 1.05}
{"binder": "B22", "binding signal": 1.02}
